Experimental data: the supplement of paper PMC12578646, “Prodrug florfenicol amine is activated by intrinsic resistance to target Mycobacterium abscessus” (Nature Microbiology, 2025)
In brackets after ≈: the same amount, converted by molar mass. M. abscessus ATCC 19977 and its deletion, point and complemented mutants after 5 days of drug at 37 °C plus 24 h of resazurin. Growth in % of untreated wells at the dose given (lower = more inhibition); checkerboards give % inhibition (higher = more inhibition); IC50 from the fitted curve (lower = more potent). No active / inactive call. IC50 values come from the same 384-well curves. Growth is not capped and can exceed 100%. The direction of the checkerboard scale is read from the raw signals. Capreomycin is a mixture.

Assays:
[1] = tested on: Mycobacterium abscessus ATCC 19977 WhiB7 F24fs; experiment: growth relative to untreated wells; higher = more growth (less inhibition)
Protocol: (§1)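 384-well two-fold dose series, two replicates; 5 days at 37 °C, then 24 h with resazurin; fluorescence scaled to growth and killed controls.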

[2] = tested on: Mycobacterium abscessus ATCC 19977 WhiB7 L37P; experiment: as above
Protocol: as §1

[3] = tested on: Mycobacterium abscessus ATCC 19977 Eis2 Y284*; experiment: as above
Protocol: as §1

[4] = tested on: Mycobacterium abscessus ATCC 19977 WhiB7 A51T; experiment: as above
Protocol: as §1

[5] = tested on: Mycobacterium abscessus ATCC 19977 Eis2 E120fs; experiment: as above
Protocol: as §1

[6] = tested on: Mycobacterium abscessus ATCC 19977 Eis2 Y255*; experiment: as above
Protocol: as §1

[7] = tested on: Mycobacterium abscessus ATCC 19977 WhiB7 T70fs; experiment: as above
Protocol: as §1

[8] = tested on: Mycobacterium abscessus ATCC 19977 Eis2 Y227D; experiment: as above
Protocol: as §1

[9] = tested on: Mycobacterium abscessus ATCC 19977 Δeis2; experiment: as above
Protocol: as §1

[10] = tested on: Mycobacterium abscessus ATCC 19977 WhiB7 R76del
Protocol: as §1

[11] = tested on: Mycobacterium abscessus ATCC 19977 ΔwhiB7
Protocol: as §1

[12] = tested on: Mycobacterium abscessus ATCC 19977 WhiB7 F24fs
Protocol: as §1

[13] = tested on: Mycobacterium abscessus ATCC 19977 WhiB7 L37P
Protocol: as §1

[14] = tested on: Mycobacterium abscessus ATCC 19977 Eis2 Y284*
Protocol: as §1

[15] = tested on: Mycobacterium abscessus ATCC 19977 WhiB7 A51T
Protocol: as §1

[16] = tested on: Mycobacterium abscessus ATCC 19977 Eis2 T258R
Protocol: as §1

[17] = tested on: Mycobacterium abscessus ATCC 19977 Eis2 E120fs
Protocol: as §1

[18] = tested on: Mycobacterium abscessus ATCC 19977 Eis2 Y255*
Protocol: as §1

[19] = tested on: Mycobacterium abscessus ATCC 19977 WhiB7 T70fs
Protocol: as §1

[20] = tested on: Mycobacterium abscessus ATCC 19977 Eis2 Y227D
Protocol: as §1

[21] = tested on: Mycobacterium abscessus ATCC 19977 Δeis2
Protocol: as §1

O=C(N[C@H](CO)[C@H](O)c1ccc([N+](=O)[O-])cc1)C(Cl)Cl [chloramphenicol]
growth [%]
Settings	[1]	[2]	[3]	[4]	[5]	[6]	[7]	[8]	[9]
0.5 µg/mL	106	101	101.5	104	103	101	95.9	109	96.5
1 µg/mL	106	104	101	106	110	102	98.28	108	99.3
2 µg/mL	108	110	95	106	107.5	103	102	97	98.4
4 µg/mL	111.4	113	107.2	119	112	108.2	113	108	101
8 µg/mL	111	120	105	123	114	107	116.4	110	99.8
16 µg/mL	80.2	111	115	102	114	112.8	78.7	118	106
32 µg/mL	25.9	46.4	114	45.4	120	116.9	31.5	118	108
64 µg/mL	5.61	12.5	110	11.7	118	110	4.21	117	81.6
128 µg/mL	-1.74	1.16	74.1	8.16	110	84.4	-2.65	112	56
256 µg/mL	-2.73	-2.05	21.7	-2.68	40.4	31.6	-4.87	41.5	11.7
512 µg/mL	-2.75	-2.37	6.78	-2.83	18.7	13.5	-4.87	24.8	12.6
1024 µg/mL	-2.71	-3.09	-2.458	-3.32	-1.89	-3.39	-4.4	0.729	-2.85

Settings	IC50 [µg/mL]
[10]	23.1 (≈ 71.6 µM)
[11]	31.1 (≈ 96.4 µM)
[12]	23.9 (≈ 73.9 µM)
[13]	31.8 (≈ 98.4 µM)
[14]	176 (≈ 546 µM)
[15]	31.5 (≈ 97.4 µM)
[16]	146 (≈ 453 µM)
[17]	246 (≈ 760 µM)
[18]	210 (≈ 649 µM)
[19]	24.8 (≈ 76.6 µM)
[20]	262 (≈ 811 µM)
[21]	133 (≈ 413 µM)

CC[C@H]1OC(=O)[C@H](C)[C@@H](O[C@H]2C[C@@](C)(OC)[C@@H](O)[C@H](C)O2)[C@H](C)[C@@H](O[C@@H]2O[C@H](C)C[C@H](N(C)C)[C@H]2O)[C@](C)(OC)C[C@@H](C)C(=O)[C@H](C)[C@@H](O)[C@]1(C)O [clarithromycin]
growth [%]
Settings	[1]	[2]	[3]	[4]	[5]	[6]	[7]	[8]	[9]
0.03125 µg/mL	122	121	123	132	131	129	120	124.8	121
0.0625 µg/mL	33.8	52	88.087	49.1	109	82.5	17.5	83.7	56.1
0.125 µg/mL	1.08	1.8	22.9	7.95	35.3	18	-0.673	24.7	18.3
0.25 µg/mL	-1.8	-1.57	3.31	-0.625	5.66	1.78	-4.48	3.27	-1.54
0.5 µg/mL	-1.95	-1.79	-1.361	-1.53	0.146	-0.0444	-4.11	0.757	-2.92
1 µg/mL	-3.26	-2.63	-2.83	-3.11	-2.24	-3.83	-4.61	-1.64	-4.1
2 µg/mL	-3.03	-2.81	-2.67	-2.97	-3.04	-4.34	-4.73	-1.07	-3.67
4 µg/mL	-3.09	-3.54	-0.5	-3.22	-3.21	-4.43	-5.56	-2	-4.11
8 µg/mL	-2.36	-3.028	-2.84	-3.26	-3.137	-4.46	-5.12	-1.73	-3.79
16 µg/mL	-2.55	-2.62	-2.81	-2.87	-3.13	-4.42	-4.82	-1.37	-4.02
32 µg/mL	-2.49	-2.65	-2.61	-3.01	-2.4	-4.07	-4.49	-1.46	-3.42
64 µg/mL	-1.19	-1.194	-1.64	-1.4	-1.31	-2.93	-3.04	-0.122	-1.98

Settings	IC50 [µg/mL]
[10]	0.0607 (≈ 0.0811 µM)
[11]	0.065 (≈ 0.0869 µM)
[12]	0.0583 (≈ 0.0779 µM)
[13]	0.0633 (≈ 0.0846 µM)
[14]	0.0962 (≈ 0.129 µM)
[15]	0.0626 (≈ 0.0837 µM)
[16]	0.0724 (≈ 0.0968 µM)
[17]	0.112 (≈ 0.149 µM)
[18]	0.0888 (≈ 0.119 µM)
[19]	0.0573 (≈ 0.0766 µM)
[20]	0.0945 (≈ 0.126 µM)
[21]	0.0707 (≈ 0.0946 µM)

CN(C)[C@@H]1C(O)=C(C(N)=O)C(=O)[C@@]2(O)C(O)=C3C(=O)c4c(O)c(NC(=O)CN5CCCC5)cc(F)c4C[C@H]3C[C@@H]12 [eravacycline]
growth [%]
Settings	[1]	[2]	[3]	[4]	[5]	[6]	[7]	[8]	[9]
0.003125 µg/mL	101	94.9	98.5	99.19	98.4	93.5	90.179	107	101
0.00625 µg/mL	103	108	102	106	106.5	97.2	100	104	100
0.0125 µg/mL	96	95.2	97	100	101	99.8	98.2	100	94.2
0.025 µg/mL	101	102	100	102	102	100	97.7	101	100
0.05 µg/mL	92.1	91	91.1	89.5	87.7	92.9	92.5	99.8	93.9
0.1 µg/mL	98.8	102	98	99.1	109	96	99.5	104	99.1
0.2 µg/mL	116.3	124	116.2	135	125	120	118	123	87.1
0.4 µg/mL	1.84	3.43	84.7	-3.04	65.7	63.8	11.1	57.2	24.5
0.8 µg/mL	10.3	-1.66	-0.944	-3.81	-0.517	3.48	-5.74	1.65	9.73
1.6 µg/mL	-4.87	-4.67	-4.42	-5.04	-3.8	-5.71	-6.93	-2.51	-3.42
3.2 µg/mL	-5.41	-5	-5.86	-6.18	-6.33	-6.63	-7.71	-4.7	-6.24
6.4 µg/mL	-6.37	-6.38	-6.95	-7.29	-7.2	-8.43	-8.73	-5.88	-7.2

Settings	IC50 [µg/mL]
[10]	0.344 (≈ 0.615 µM)
[11]	0.231 (≈ 0.413 µM)
[12]	0.329 (≈ 0.59 µM)
[13]	0.345 (≈ 0.618 µM)
[14]	0.435 (≈ 0.78 µM)
[15]	0.23 (≈ 0.411 µM)
[16]	0.386 (≈ 0.691 µM)
[17]	0.417 (≈ 0.747 µM)
[18]	0.441 (≈ 0.79 µM)
[19]	0.354 (≈ 0.634 µM)
[20]	0.418 (≈ 0.748 µM)
[21]	0.3 (≈ 0.537 µM)

CS(=O)(=O)c1ccc([C@@H](O)[C@H](N)CF)cc1 [florfenicol amine]
growth [%]
Settings	[1]	[2]	[3]	[4]	[5]	[6]	[7]	[8]	[9]
0.25 µg/mL	107	102	103.7	104	102	104	102	113	96.9
0.5 µg/mL	107	113	104	106	114	107	100.8	113	99.3
1 µg/mL	103	109	102	99.8	107	103	93.7	101	96.5
2 µg/mL	110	102	103.2	110	107	105	107	99.9	97.2
4 µg/mL	103	105	98.4	106	109	103	98.8	110	96.2
8 µg/mL	105	111	106	103	108	105.9	97.5	112	96.3
16 µg/mL	101.2	109	112	106	111	115	97.4	115	101.6
32 µg/mL	111	116.1	118	118	127	123	108	125	114
64 µg/mL	123.7	126	41.8	128.8	60.2	41.3	123.8	57.9	114.8
128 µg/mL	18.4	6.95	10.6	123	10.4	6.39	15.3	13.5	42
256 µg/mL	-1.49	-1.71	13	0.654	12.3	6.78	-3.95	12	27.55
512 µg/mL	-0.814	-0.738	2.18	-1.47	4.04	0.985	-3.38	2.88	6.2

Settings	IC50 [µg/mL]
[10]	117 (≈ 474 µM)
[11]	122 (≈ 493 µM)
[12]	118 (≈ 475 µM)
[13]	112 (≈ 452 µM)
[14]	60.6 (≈ 245 µM)
[15]	218 (≈ 880 µM)
[16]	82.3 (≈ 333 µM)
[17]	72.4 (≈ 293 µM)
[18]	60.4 (≈ 244 µM)
[19]	116 (≈ 469 µM)
[20]	72.5 (≈ 293 µM)
[21]	138 (≈ 556 µM)
